# Screen size: about 310,000 compounds; about 14,000 (4.5%) showed an effect of 50% or more. Effects have a minus sign here. Some of the results follow.
# Molecular target: human ether-à-go-go-related gene (hERG) potassium channel (human, UniProt Q12809)
# Assay: primary screen, population patch clamp on CHO cells stably expressing hERG
# 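Further: peak tail current of the secondary pulse compared with the same well before compound.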
# human ether-à-go-go-related gene (hERG) potassium channel, sequence (Q12809 whole entry, looked up): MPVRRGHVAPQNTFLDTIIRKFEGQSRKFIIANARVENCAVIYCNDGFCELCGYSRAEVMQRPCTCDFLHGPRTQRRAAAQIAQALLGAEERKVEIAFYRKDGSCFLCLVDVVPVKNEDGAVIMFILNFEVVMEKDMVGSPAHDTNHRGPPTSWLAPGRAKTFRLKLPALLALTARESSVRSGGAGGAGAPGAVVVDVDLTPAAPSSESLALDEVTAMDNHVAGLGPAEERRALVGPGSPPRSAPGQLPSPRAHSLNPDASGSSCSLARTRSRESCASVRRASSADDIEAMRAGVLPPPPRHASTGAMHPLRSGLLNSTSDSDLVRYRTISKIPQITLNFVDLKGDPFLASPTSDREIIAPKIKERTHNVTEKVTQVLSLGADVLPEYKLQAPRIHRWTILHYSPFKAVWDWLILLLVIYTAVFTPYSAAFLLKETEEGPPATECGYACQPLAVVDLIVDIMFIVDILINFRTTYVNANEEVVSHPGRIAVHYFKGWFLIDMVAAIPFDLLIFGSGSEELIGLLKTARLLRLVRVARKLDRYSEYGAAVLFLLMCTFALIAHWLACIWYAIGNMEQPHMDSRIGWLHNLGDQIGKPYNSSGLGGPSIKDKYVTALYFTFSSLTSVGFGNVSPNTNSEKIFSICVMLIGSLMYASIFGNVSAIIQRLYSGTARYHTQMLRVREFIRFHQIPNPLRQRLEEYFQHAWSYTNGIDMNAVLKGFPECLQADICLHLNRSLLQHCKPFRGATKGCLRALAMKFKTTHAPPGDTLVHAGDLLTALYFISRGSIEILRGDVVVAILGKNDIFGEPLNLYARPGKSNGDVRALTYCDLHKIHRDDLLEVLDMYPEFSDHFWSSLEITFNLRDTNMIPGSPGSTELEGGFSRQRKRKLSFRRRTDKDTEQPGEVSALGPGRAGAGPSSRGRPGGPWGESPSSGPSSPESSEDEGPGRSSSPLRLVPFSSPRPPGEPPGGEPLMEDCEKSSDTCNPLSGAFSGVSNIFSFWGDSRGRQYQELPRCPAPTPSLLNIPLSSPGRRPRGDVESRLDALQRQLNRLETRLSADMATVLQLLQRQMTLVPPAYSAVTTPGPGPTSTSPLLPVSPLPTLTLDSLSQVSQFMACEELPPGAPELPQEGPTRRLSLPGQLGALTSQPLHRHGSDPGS
row,SMILES,"hERG current change (%, negative = inhibition) at 10uM [%]"
1,CN1C(=O)C(=Cc2ccccc2OCc2ccc(Cl)cc2)C(=O)N(C)C1=O,7.86
2,COC(c1ccccc1)c1nc2ccccc2[nH]c1=O (centres unmarked),12.2
3,CCn1nc(C)c(/C=N/NC(=O)Cc2ccc(Cl)cc2)c1C,-21.2
4,COC(=O)C1=C(c2ccc(F)cc2OCc2ccccc2)C[C@@H]2CC[C@H]1N2C(=O)NCc1cccc(C(F)(F)F)c1,11.4
5,C/C(=N\OCC(=O)Nc1nc2ccccc2s1)c1ccccc1,-8.06
6,C=CCOc1ccc(/C=N/NC(=O)CN2CCOCC2)cc1OCC,12.4
7,CSc1nccc(Oc2ccc(C#N)cc2)n1,-10.8
8,C[C@H](NC(=O)C1CCN(S(=O)(=O)c2ccccc2)CC1)C(=O)NCc1ccc(Cl)cc1Cl,-34.5
9,Cc1ccc(CNC(=O)CCC2CCCN(Cc3cc4ccccc4o3)C2)o1 (centres unmarked),-69.2
10,CCC1CCCCN1C(=S)NC(=O)c1cccc([N+](=O)[O-])c1 (centres unmarked),17.1
11,Cc1nn(-c2ccc(Cl)cc2)c(Cl)c1/C=N/NC(=O)c1ccc(NS(=O)(=O)c2cccs2)cc1,2.4
12,COc1cccc(-n2c(C)c(C(C)=O)c(C(C)=O)c2C)c1,0.658
13,Cc1nnc(C)n1/N=C/c1ccc(O)cc1,3.42
14,Cc1c(Cl)c(C(F)(F)F)nn1CC(=O)NCc1ccco1,11.8
15,Cc1ccccc1NC(=O)C1c2cccc[n+]2CC(=O)N1c1c(C)cccc1C.[I-] (centres unmarked),13.8
16,CCOC(=O)c1sc(NC(C)=O)nc1-c1ccccc1,4.96
17,COc1ccc(N2CSC3=C(C#N)C(c4cc(OC)ccc4OC)CC(=O)N3C2)c(OC)c1 (centres unmarked),-17.1
18,CCNC(=O)CC1C(=O)N(c2ccc(F)cc2)C(=S)N1CCc1ccncc1 (centres unmarked),-22.3
19,CCc1ccc2nc(N(CCN(C)C)C(=O)c3ccc4ncsc4c3)sc2c1.Cl,-60.6
20,CN(C)CCn1c(NC(=O)c2ccc(Cl)cc2)nc2ccccc21,-20.9
21,OC[C@@H]1CCCN1Cc1nc(-c2cccs2)no1,16.3
22,Cn1ncc(C#N)c1/N=C/N1CCCCC1,10.6

row,SMILES,"hERG current change (%, negative = inhibition) at 10uM [%]"
1,CC(C)(C)c1ccc(C(=O)OC/C(O)=C(\C#N)c2nc3ccccc3s2)cc1,5.3
2,Fc1ccc(-c2ccnn2-c2ccccc2)cc1,14.5
3,Cc1cc(C(=O)NNC(=S)NCc2ccco2)n(C)n1.c1ccccc1,14.6
4,O=c1[nH]c2ccc(S(=O)(=O)N3CCN(c4ccccc4)CC3)cc2[nH]c1=O,0.0563
5,CC(=O)c1c(C)oc2c1cc(O)c1ccccc12,3.2
6,COc1ccc(CNC(=O)CCNS(=O)(=O)c2cccc3nsnc23)cc1,-1.19
7,COc1ccc(N=C2SC(C(=O)Nc3ccc(OC)cc3)CC(=O)N2CCN2CCOCC2)cc1 (centres unmarked),-39
8,COC(=O)c1cc(S(=O)(=O)NCc2cc(OC)c(OC)c(OC)c2)cn1C,12.5
9,Cc1ccc(-n2[nH]c(C)c(C=Nc3ccc(S(=O)(=O)Nc4nc(C)cc(C)n4)cc3)c2=O)c(C)c1,-1.85
10,Cc1ccnc(SCc2cc(=O)c(OC(=O)c3ccc(S(=O)(=O)N(C)C)cc3)co2)n1,-36.4
11,CCN(CC)c1ccc(NC(=O)COc2ccccc2C#N)cc1S(=O)(=O)Nc1ccccc1OC,3.96
12,CN(CCc1ccccn1)C(=O)CCC1CCCN(C(=O)c2ccsc2)C1 (centres unmarked),-1.56
13,C/C(CC(=O)Nc1ccc(N(C)C)cc1)=N\NC(=O)c1cnccn1,20
14,CCOC(=O)c1c(-c2ccccc2)nc2c(C)cccn12,-12.5
15,COc1ccc(-c2csc(NC(=O)CN3C(=O)C4CC=CCC4C3=O)n2)cc1OC (centres unmarked),10.5
16,CCOc1ccc(S(=O)(=O)N(C)C)cc1-c1nc2c(C(C)(C)C)nn(C)c2c(=O)[nH]1,16
17,COC(=O)c1ccc(-c2sc3nc(N4CCOCC4)c4c(c3c2N)CCCC4)o1,20.4
18,CCC(C)(C)C(=O)Nc1nnc(CCc2ccccc2)s1,-41.1
19,Cn1cccc1C(=O)OCC(=O)N1c2ccccc2NC(=O)C1(C)C,7.42
20,CCOc1ccc(CCNC(=O)Cc2ccc(NC3=NC4CS(=O)(=O)CC4S3)cc2)cc1 (centres unmarked),24.9
21,CCOc1ccc(-n2cc(C(=O)Nc3cccc(OC)c3)c3cc(OC)c(OC)cc3c2=O)cc1,3.33
22,COc1cccc(NC(=S)NCCc2ccccn2)c1,7.98

row,SMILES,"hERG current change (%, negative = inhibition) at 10uM [%]"
1,Cc1cccc(N2CCN(C(=O)CCCSc3nc4ccccc4[nH]3)CC2)c1C,-17.4
2,CCCCNC(=O)N(O)C1N(/N=C/c2ccco2)C(=S)SC1(C)C (centres unmarked),10.3
3,O=C(c1cc2ncc(Br)cn2n1)N1CCN(C(=O)c2ccco2)CC1,-12.9
4,O=c1cc(Cc2nnc(SCc3ccccc3)n2-c2ccc(Cl)cc2)[nH]c(=O)[nH]1,0.593
5,Cc1nc(Nc2ccc(S(N)(=O)=O)cc2)oc1C,3.37
6,CC(C)C(OC(=O)c1ccco1)C(=O)NC1CCCCC1 (centres unmarked),-3.32
7,COc1ccc(NS(=O)(=O)c2cccc(NC(=O)CCC(=O)c3cccs3)c2)cc1,-47.3
8,CCCC(=O)NC(c1ccccc1)c1c(O)ccc2ccccc12 (centres unmarked),13.8
9,Cc1ccc(NC(=O)C2CCN(c3cnccn3)CC2)cc1C,38.3
10,O=C(NCc1ccc(C(F)(F)F)cc1)c1ccc2c(c1)S(=O)(=O)c1ccccc1C2=O,-4.03
11,CNC(=S)N1N=C(c2ccc(C)cc2)CC1c1ccc(Cl)cc1 (centres unmarked),-0.424
12,O=C(NCCNC1CCC(c2ccccc2)CC1)c1cccs1 (centres unmarked),-35.2
13,CCc1nc(N2CCCC(C)C2)c2oc3ccccc3c2n1.Cl (centres unmarked),6.78
14,CCOc1ccc(C(=O)C2CCN(CC(=O)Nc3nccs3)CC2)cc1,-68.3
15,COc1ccc(-c2nc(N)n(C(=O)c3ccco3)n2)cc1,1.08
16,Cn1c(CCc2ccc(N)cc2)nc2ccccc21,-8.55
17,O=C(Nc1ccccc1)c1ccc(N2CCN(c3ccccc3)CC2)c(S(=O)(=O)N2CCOCC2)c1,-9.82
18,COc1ccccc1NC(=O)C/C(C)=N/NC(=O)COc1c(Br)cc(Br)cc1OC,-22.2
19,Cc1ccccc1CN1CCN(C(C)C(=O)NCc2ccccc2)CC1 (centres unmarked),-13.6
20,Cc1cc(O)c(N)c(C)c1Cl.Cl,-4.7
21,Cc1ccc(C(OCC(O)CNC(CO)C(O)c2ccc([N+](=O)[O-])cc2)c2ccccc2)cc1 (centres unmarked),-22.4
22,COc1cccc(N(C(=O)Cn2nnc(-c3ccc(C)o3)n2)C(C(=O)NC(C)(C)C)c2cccs2)c1 (centres unmarked),-1.02

row,SMILES,"hERG current change (%, negative = inhibition) at 10uM [%]"
1,C/C(=N\NC(=O)c1ccccc1C)c1cccc([N+](=O)[O-])c1,3
2,O=C(NCc1ccco1)C1Cc2ccccc2CN1C(=O)c1ccco1 (centres unmarked),-6.44
3,O=C(CCCl)N1CCN(c2nc(-c3ccccc3)cs2)CC1,-6.46
4,Cc1nc2ccsc2c(=O)n1-c1ccc(Cl)cc1,4.99
5,CN(CC(=O)NCc1ccco1)S(=O)(=O)c1ccc2c(c1)n(C)c(=O)c(=O)n2C,0.277
6,CC(=O)c1ccc(S(=O)(=O)N2CCCC2)cc1,0.365
7,CCS(=O)(=O)N1CCN(C2Cc3ccccc3C2)CC1.O=C(O)C(=O)O,3.3
8,O=C(NCCCN1CCCC1=O)c1cccc(S(=O)(=O)N2CCN(c3ccccc3)CC2)c1,-33.3
9,COc1cc2c(cc1OC)-c1cc(NC3CCCC3)nc(=O)n1CC2,5.71
10,O=C(Cc1ncc(C(F)(F)F)cc1Cl)N1CCN(c2ccc(F)cc2)CC1,-41.3
11,CC(NCc1ccc(S(N)(=O)=O)cc1)C(=O)Nc1cccc(Cl)c1 (centres unmarked),-8.15
12,CCOc1ccc(N(CC(=O)NCc2ccccc2)S(C)(=O)=O)cc1,-10.9
13,Cc1ccc2c(c1)N(CC(=O)NC1CCCc3ccccc31)C(=O)CO2 (centres unmarked),-4.94
14,CCOC(=O)C1=C(O)C(=O)NC(c2ccccc2)=C(OCC)C1,0.866
15,COc1ccc(Oc2ncccc2NC(=O)c2cccc(C)c2C)cc1,-2.24
16,Cc1ccc2oc(=O)c3cnn(CC(=O)NC4CCN(Cc5ccccc5)CC4)c3c2c1,-43.8
17,CCCCC(=O)N1CCCC(C)C1 (centres unmarked),25.8
18,CCC1Oc2ccccc2N(CC(=O)NCCN2C(C)CCCC2C)C1=O (centres unmarked),-6.89
19,O=C(NCCC1CCCCN1S(=O)(=O)c1ccccc1)C(=O)NC1CCCC1 (centres unmarked),-42.6
20,CC[C@@H](C)C(NC(=O)OC(C)(C)C)c1cn([C@@H](Cc2ccc(O)cc2)C(=O)N2CCN(C(=O)OC(C)(C)C)CC2)nn1 (some centres unmarked),-70
